Article PMC12746902, “Pathogenic Gαo Mutants Drive Dominant GPCR Coupling in GNAO1 Encephalopathies” (The FASEB Journal, 2025)

Target: T1, M2 muscarinic acetylcholine receptor with C-terminal split-YFP fragment YN (M2R-YN) (UniProt P08172 1-466)
T1 sequence (looked up): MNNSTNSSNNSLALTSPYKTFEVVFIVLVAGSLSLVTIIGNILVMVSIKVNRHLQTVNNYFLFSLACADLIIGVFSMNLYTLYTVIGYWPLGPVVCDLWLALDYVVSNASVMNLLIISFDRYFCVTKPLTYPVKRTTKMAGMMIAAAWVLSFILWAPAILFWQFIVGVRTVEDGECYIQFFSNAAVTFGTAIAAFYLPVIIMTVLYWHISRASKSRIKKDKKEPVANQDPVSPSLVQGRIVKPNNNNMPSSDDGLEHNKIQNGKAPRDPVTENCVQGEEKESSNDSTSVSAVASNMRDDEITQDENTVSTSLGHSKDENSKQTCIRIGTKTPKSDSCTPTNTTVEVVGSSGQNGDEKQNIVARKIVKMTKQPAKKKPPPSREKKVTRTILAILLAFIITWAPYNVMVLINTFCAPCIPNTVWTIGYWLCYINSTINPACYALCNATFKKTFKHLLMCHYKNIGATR
Experiment: cell-based or functional assay

reduction of ACh-mediated phosphorylation (pT307/pS309 relative to total receptor) of immunoprecipitated GFP-M2R with co-expressed UNTAGGED Gαo C215Y, 100 μM ACh for 5 min: 20%
B1: Gαo C215Y with internal split-YFP fragment YC at Gly92 (natural protein)
chain: not shown
